# Assay results from a collection of fitness landscapes (doi:10.1016/j.celrep.2020.107928).
# Whole data set: some 81,000 sequences, median “one-hybrid fitness for binding parS DNA” near -0.17, cut for the highest 2% near 0.51. The list shows a part of the results.
# B1: Caulobacter ParB omega fusion; a variant is named by its letters at X, in order, B8GW30 (parent)
# chain: MESVVVGEPGMSEGRRGLGRGLSALLGEVDAAPAQAPGEQLGGSREAPIEILQRNPDQPRRTFREEDLEDLSNSIREKGVLQPILVRPSPDTAGEYQIVAGERAWRAAQRAGLKTVPIMVRELDDLAVLEIGIIENVQRADLNVLEEALSYKVLMEKFERTQENIAQTIGKSXSHVANXMRLLXLPDEVQSYLVSGELTAXHARAIAAAADPVALAKQIIEGGLSVRETEALARKAPNLSAGKSKGGRPPRVKDTDTQALESDLSSVLGLDVSIDHRGSTGTLTITYATLEQLDDLCNRLTRGI
# Variants of: B1
# Assay: one-hybrid fitness for binding parS DNA (scaled: cognate 1, non-cognate 0); higher = stronger binding
# Conditions: with parS DNA site
# How it was run: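 In E. coli USO, a HIS3 reporter with its site placed 19 bp from the promoter was used to select Caulobacter ParB variants randomised at four specificity codons. Growth lasted 48 hours at 37°C on histidine-free M9 containing 0.1 mM IPTG and 5 mM 3-AT. Fitness was taken as the log change in variant-to-wild-type read ratio from Illumina sequencing of pre- and post-selection plasmids, rescaled between the non-cognate and cognate sites.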
row,Variant,one-hybrid fitness for binding parS DNA
1,GVDE,≤ 0.2
2,PLVW,≤ 0.2
3,NCEG,≤ 0.2
4,GYHR,≤ 0.2
5,LSHC,≤ 0.2
6,WQYG,≤ 0.2
7,EKAR,≤ 0.2
8,SSYL,≤ 0.2
9,YYIF,≤ 0.2
10,ASHG,≤ 0.2
11,QSMR,≤ 0.2
12,PFQG,≤ 0.2
13,RPKR,≤ 0.2
14,EMEV,≤ 0.2
15,QIQN,≤ 0.2
16,RPMV,≤ 0.2
17,TMSR,≤ 0.2
18,CEPN,≤ 0.2
19,CYWR,≤ 0.2
20,YYIT,≤ 0.2
21,TPRQ,≤ 0.2
22,IIGT,≤ 0.2
23,MYSP,≤ 0.2
24,ADST,≤ 0.2
25,YHGY,≤ 0.2
26,CTLI,≤ 0.2

row,Variant,one-hybrid fitness for binding parS DNA
1,VIRG,≤ 0.2
2,PKFR,≤ 0.2
3,SLKF,≤ 0.2
4,TVPW,≤ 0.2
5,VTLL,≤ 0.2
6,GWST,≤ 0.2
7,VGCL,≤ 0.2
8,MMTD,≤ 0.2
9,KAWV,≤ 0.2
10,APLC,≤ 0.2
11,RQRH,0.249
12,YSLS,≤ 0.2
13,AMKP,≤ 0.2
14,DMGC,≤ 0.2
15,YRNF,≤ 0.2
16,ALDW,≤ 0.2
17,SQVD,≤ 0.2
18,VHRS,≤ 0.2
19,MKMR,≤ 0.2
20,QNPG,≤ 0.2
21,QMQA,≤ 0.2
22,WLNW,≤ 0.2
23,KFKW,≤ 0.2
24,RNLP,≤ 0.2
25,GFTC,≤ 0.2
26,RGWV,≤ 0.2

row,Variant,one-hybrid fitness for binding parS DNA
1,VQYT,≤ 0.2
2,QCLN,≤ 0.2
3,AQTN,≤ 0.2
4,CEAT,≤ 0.2
5,RLGA,0.617
6,IKGS,≤ 0.2
7,PGPM,≤ 0.2
8,HFSC,≤ 0.2
9,TRMH,≤ 0.2
10,ASYN,≤ 0.2
11,TFGS,≤ 0.2
12,QQTM,≤ 0.2
13,NDSI,≤ 0.2
14,THSC,≤ 0.2
15,SFYM,0.36
16,HTRC,≤ 0.2
17,TFMT,≤ 0.2
18,CNNR,≤ 0.2
19,LEDL,≤ 0.2
20,SMYN,≤ 0.2
21,LMAL,≤ 0.2
22,WIVA,≤ 0.2
23,LVDS,≤ 0.2
24,VYDD,≤ 0.2
25,VCNG,≤ 0.2
26,KRYS,≤ 0.2

row,Variant,one-hybrid fitness for binding parS DNA
1,RCFM,0.377
2,VAHV,≤ 0.2
3,SGTF,≤ 0.2
4,RLAG,1.01
5,FDES,≤ 0.2
6,QHDH,≤ 0.2
7,LIDE,≤ 0.2
8,CRMR,≤ 0.2
9,NSMC,≤ 0.2
10,WTST,≤ 0.2
11,CTLV,≤ 0.2
12,FVDS,≤ 0.2
13,WAMN,≤ 0.2
14,RIHE,≤ 0.2
15,LVSL,≤ 0.2
16,LAAW,≤ 0.2
17,SGPK,≤ 0.2
18,ERFG,≤ 0.2
19,WTGW,≤ 0.2
20,HMYR,≤ 0.2
21,RKKF,0.238
22,HCEM,≤ 0.2
23,TPQY,≤ 0.2
24,HDNC,≤ 0.2
25,KMKS,≤ 0.2
26,TWEG,≤ 0.2

row,Variant,one-hybrid fitness for binding parS DNA
1,VATL,≤ 0.2
2,ATNT,≤ 0.2
3,LRNG,≤ 0.2
4,SHYG,≤ 0.2
5,HKSK,≤ 0.2
6,GNMC,≤ 0.2
7,PRCP,≤ 0.2
8,CNRT,≤ 0.2
9,LTPK,≤ 0.2
10,STSN,≤ 0.2
11,SEGG,≤ 0.2
12,RMTN,0.45
13,LSAR,≤ 0.2
14,TIIC,≤ 0.2
15,DLVS,≤ 0.2
16,STKC,≤ 0.2
17,HWAS,≤ 0.2
18,NCAS,≤ 0.2
19,RHCG,0.95
20,SQSM,≤ 0.2
21,WVIG,≤ 0.2
22,TGSP,≤ 0.2
23,YSNT,≤ 0.2
24,ASYA,≤ 0.2
25,HIWD,≤ 0.2
26,TSFL,≤ 0.2

row,Variant,one-hybrid fitness for binding parS DNA
1,HVSC,≤ 0.2
2,YGNC,≤ 0.2
3,VEYL,≤ 0.2
4,LHLR,≤ 0.2
5,RAKM,0.448
6,HYTY,≤ 0.2
7,GIKL,≤ 0.2
8,VPFC,≤ 0.2
9,EPKK,≤ 0.2
10,HTVL,≤ 0.2
11,WNSR,≤ 0.2
12,WQMR,≤ 0.2
13,ESYT,≤ 0.2
14,KCPI,≤ 0.2
15,ARGF,≤ 0.2
16,QLPM,≤ 0.2
17,HPCH,≤ 0.2
18,MVTL,≤ 0.2
19,LDKT,≤ 0.2
20,LHIT,≤ 0.2
21,LHME,≤ 0.2
22,FDSR,≤ 0.2
23,LVRG,≤ 0.2
